The results in this text go back to article PMC4336329 (PLoS ONE, 2015).

In all, about 310,000 compounds went through this assay and about 2,200 (0.71%) showed an effect of 50% or more. Effects have a minus sign here. This is one part of the list.

The target of this assay is human ether-à-go-go-related gene (hERG) potassium channel (human, UniProt Q12809). Kind of assay: primary screen, population patch clamp on CHO cells stably expressing hERG.
human ether-à-go-go-related gene (hERG) potassium channel, sequence (Q12809 whole entry, looked up): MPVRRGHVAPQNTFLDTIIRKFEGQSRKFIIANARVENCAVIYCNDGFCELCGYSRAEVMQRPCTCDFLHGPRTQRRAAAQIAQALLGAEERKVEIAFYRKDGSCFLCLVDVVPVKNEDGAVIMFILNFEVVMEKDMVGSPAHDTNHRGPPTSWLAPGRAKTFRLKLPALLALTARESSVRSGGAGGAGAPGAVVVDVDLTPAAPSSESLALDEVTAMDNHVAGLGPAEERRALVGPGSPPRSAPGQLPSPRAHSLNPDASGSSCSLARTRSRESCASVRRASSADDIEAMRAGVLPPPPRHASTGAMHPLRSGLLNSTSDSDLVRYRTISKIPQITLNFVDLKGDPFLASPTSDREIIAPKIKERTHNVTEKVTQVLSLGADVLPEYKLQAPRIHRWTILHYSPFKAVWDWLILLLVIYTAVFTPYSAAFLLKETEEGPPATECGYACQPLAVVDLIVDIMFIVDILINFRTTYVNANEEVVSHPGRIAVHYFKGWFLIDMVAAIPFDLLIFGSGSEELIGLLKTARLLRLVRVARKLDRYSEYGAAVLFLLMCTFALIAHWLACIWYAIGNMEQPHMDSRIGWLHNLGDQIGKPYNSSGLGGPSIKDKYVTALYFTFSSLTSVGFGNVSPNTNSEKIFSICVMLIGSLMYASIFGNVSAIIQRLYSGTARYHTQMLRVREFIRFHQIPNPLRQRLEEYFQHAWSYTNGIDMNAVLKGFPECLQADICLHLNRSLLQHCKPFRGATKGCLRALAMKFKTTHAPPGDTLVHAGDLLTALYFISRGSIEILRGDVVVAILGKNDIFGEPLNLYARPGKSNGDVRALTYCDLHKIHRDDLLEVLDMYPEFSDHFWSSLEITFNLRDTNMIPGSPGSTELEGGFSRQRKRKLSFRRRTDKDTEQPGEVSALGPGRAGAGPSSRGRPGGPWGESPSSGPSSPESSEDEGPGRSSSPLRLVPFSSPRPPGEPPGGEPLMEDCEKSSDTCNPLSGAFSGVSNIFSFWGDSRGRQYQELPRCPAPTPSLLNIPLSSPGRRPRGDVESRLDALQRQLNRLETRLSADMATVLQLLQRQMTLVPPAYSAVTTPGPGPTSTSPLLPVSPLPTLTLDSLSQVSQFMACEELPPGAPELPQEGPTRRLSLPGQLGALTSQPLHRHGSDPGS
In the case of `Cc1cccc(NC(=O)c2nc[nH]c2C(=O)N[C@@H](C)c2ccccc2)c1`, the “hERG current change (%, negative = inhibition) at 1uM” value came to 13.3%.

In the case of `COc1ccc(C(=O)C2CCCN(Cc3cnc(C)s3)C2)cc1OC` (centres unmarked), the “hERG current change (%, negative = inhibition) at 1uM” value is 2.68%. As to `CC(=O)c1cccc(NC(=S)Nc2cccc3ccccc23)c1`, the “hERG current change (%, negative = inhibition) at 1uM” value is 10.6%. Regarding `CCN1C(=O)C(CC(=O)Nc2ccc(F)cc2)N(Cc2cccs2)C1=S` (centres unmarked), the “hERG current change (%, negative = inhibition) at 1uM” value is reported as -10.5%. Consider `COC(=O)c1cc(Sc2c(Cl)cccc2Cl)ccn1`, for which the “hERG current change (%, negative = inhibition) at 1uM” value was 3.11%. As to `CCOc1ccccc1C(=O)n1nc2nc(C)cc(C)c2c1N`, the “hERG current change (%, negative = inhibition) at 1uM” value was 8.47%.

For the molecule `c1ccc(-c2nc3cnccn3c2Nc2ccc3c(c2)OCCO3)cc1`, the “hERG current change (%, negative = inhibition) at 1uM” value is 8.75%.

In the case of `Cc1ccc(C)c(SCC(=O)N(C)CC(=O)Nc2ccc(N3CCOCC3)cc2)c1`, the “hERG current change (%, negative = inhibition) at 1uM” value amounted to 6.79%.

Turning to `CCS(=O)(=O)n1nc(-c2ccc(Cl)cc2)nc1SC`, the “hERG current change (%, negative = inhibition) at 1uM” value stood at 16.3%. The figure for `Nc1ccccc1C(=O)NNC(=O)C(=O)/C=C(\O)c1ccccc1` is 6.8%; for `O=P1(c2ccccc2)C=Cn2c1cc1c2CCCC1` (centres unmarked) it is -10.9%; for `CC(=O)Nc1ccc(S(=O)(=O)NCCNc2ccccc2[N+](=O)[O-])cc1` it is 6.95%. The figure for `Cc1ccc(-c2nc(C#N)c(NCCCn3ccnc3)o2)cc1` is -8.18%. Consider `CCCCCC1CC(CC(C)C(=O)Nc2nncs2)C(=O)O1` (centres unmarked), for which the “hERG current change (%, negative = inhibition) at 1uM” value is -8.77%. For the molecule `Cc1occc1C(=O)N1CCCC(N2CCN(c3cccc(C(F)(F)F)c3)CC2)C1` (centres unmarked), the “hERG current change (%, negative = inhibition) at 1uM” value is given as -0.369%.

Take `CC(/C=C/c1ccccc1F)=N\NC(=O)C(C)C`: the “hERG current change (%, negative = inhibition) at 1uM” value is 2.29%. To `C[C@H]1CC[C@H]2C(=O)N3[C@H](c4cccc(N5CCCC5=O)c4)[C@@H](C)CC[C@H]3C(=O)N2[C@@H]1c1cccc(N2CCCC2=O)c1` belongs -25.1%; to `CC1CCCC(C)N1C(=O)COC(=O)CCc1nc2ccccc2c(=O)[nH]1` (centres unmarked), 8.05%. Turning to `Cc1cc2c(c(=O)n1Cc1ccco1)C(c1ccccc1)C(C#N)=C(N)O2` (centres unmarked), the “hERG current change (%, negative = inhibition) at 1uM” value is on record as 13.2%. With `O=C1CSC(c2ccccc2)N1Cc1ccccc1` (centres unmarked), the “hERG current change (%, negative = inhibition) at 1uM” value came to 17.2%.

Take `Cc1cc(CNC(=O)CCc2nnc(CCCCc3ccccc3)o2)nn1C`: the “hERG current change (%, negative = inhibition) at 1uM” value is recorded as 22.1%. The figure for `COc1ccc(C(=O)Nc2cc(C)c(NC(=O)c3ccccn3)cn2)cc1` is 9.17%; for `O=C(CCSCc1ccc(Cl)cc1)NCCc1ccccc1` it is 8.28%.

Consider `COc1ccc(S(=O)(=O)N(C)CC(=O)NCc2ccco2)cc1Cl`, for which the “hERG current change (%, negative = inhibition) at 1uM” value was found to be 9.51%. For `Cc1cccc(NC(=O)Nc2cnccn2)c1C`, the “hERG current change (%, negative = inhibition) at 1uM” value stood at 11.2%. Consider `N#Cc1cc(-c2cccc(Cl)c2)c[nH]c1=O`, for which the “hERG current change (%, negative = inhibition) at 1uM” value was found to be 12.3%. Consider `COCCN(C(=O)CCC(=O)Nc1nccs1)C(C(=O)NC(C)(C)C)c1ccc(C)cc1` (centres unmarked), for which the “hERG current change (%, negative = inhibition) at 1uM” value is 5.75%. As for `O=c1ccc(Oc2nc(N3CCOCC3)nc(N3CCOCC3)n2)nn1-c1ccccc1`, the “hERG current change (%, negative = inhibition) at 1uM” value is listed as -4.49%. Consider `CCN(C(=O)COC(=O)c1n[nH]c2ccccc12)c1ccccc1`, for which the “hERG current change (%, negative = inhibition) at 1uM” value was 10.8%. Take `Cc1ccc(C(=O)CSc2nnc(CNc3ccc(C)cc3C)o2)cc1`: the “hERG current change (%, negative = inhibition) at 1uM” value is given as -8.37%.

In the case of `O=C(O)c1ccccc1Nc1ccc(OC(F)F)cc1`, the “hERG current change (%, negative = inhibition) at 1uM” value is 7.88%. With `S=c1[nH]nc(COc2ccccc2)n1/N=C/c1ccc(Br)cc1`, the “hERG current change (%, negative = inhibition) at 1uM” value turned out to be 13.4%. Turning to `CSc1ccc(-c2sc(Nc3ccccc3)n[n+]2-c2ccccc2)cc1.[Cl-]`, the “hERG current change (%, negative = inhibition) at 1uM” value is reported as -2.96%. The figure for `COc1cccc(C(C)NC(=O)C2CCCC2)c1` (centres unmarked) is 11.2%. As to `Cc1cc(C)nc(/N=C(\N)Nc2ccc(-c3ccccc3)cc2)n1`, the “hERG current change (%, negative = inhibition) at 1uM” value was -59.8%. Regarding `Cc1ccc(/C=C/C(=O)OCn2nnc3ccccc3c2=O)o1`, the “hERG current change (%, negative = inhibition) at 1uM” value worked out at 8.63%. As for `Cc1ccc(S(=O)(=O)N/N=C\c2cccnc2)cc1`, the “hERG current change (%, negative = inhibition) at 1uM” value was 8.86%. The figure for `Cc1ccccc1NC1=C(Cl)C(=O)OC1OC(=O)c1ccco1` (centres unmarked) is 11%. Consider `O=C(COc1ccccc1)NNC(=S)NC(=O)c1ccc(Cl)cc1Cl`, for which the “hERG current change (%, negative = inhibition) at 1uM” value is listed as 10.6%.

Take `Cc1[nH]c(=O)[nH]c(=O)c1S(=O)(=O)N1CCCCC1`: the “hERG current change (%, negative = inhibition) at 1uM” value came to 16.8%.

For `COc1cc2nc(C3CCC3)n(NC(=O)COc3ccccc3)c(=O)c2cc1OC`, the “hERG current change (%, negative = inhibition) at 1uM” value was 15.4%.

For the molecule `COc1ccc(OC)c(/C=C/C(=O)Nc2ccc3c(c2)CCC3)c1`, the “hERG current change (%, negative = inhibition) at 1uM” value came to 11.4%. For `O=C(COC(=O)c1ncc(Cl)c(Cl)c1Cl)NC(=O)c1ccccc1`, the “hERG current change (%, negative = inhibition) at 1uM” value is on record as 15.5%. Regarding `COc1ccccc1CNC(=S)NC1CCCCC1`, the “hERG current change (%, negative = inhibition) at 1uM” value is reported as 5.92%.
